Results reported in PubChem BioAssay AID588591 (National Center for Advancing Translational Sciences (NCATS), 2011).
The whole screen tested about 390,000 compounds, of which about 4,700 (1.2%) were called active. Inconclusive results, whose numbers are uncertain, are shown with a selection of clear calls. Calls follow the shape of the dose curve; as a rule, active = well fitted inhibition curve with a large enough effect; inconclusive = small, poorly fitted or top-dose-only effect, or another doubt; inactive = no such curve, though single readings can be large or run the other way. A potency beside an inconclusive call is a rough fit, not a confirmed value.

The compounds below were run against DNA polymerase eta (Homo sapiens) (UniProt Q9Y253) (assay: qHTS for Inhibitors of Polymerase Eta). Settings: recombinant Pol eta, fluorescent DNA replication assay; series mostly up to 114 µM; activity change, negative = inhibition: at the top concentration.
Procedure, shortened: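 Fluorescent replication assay: 50 nM final substrate added after a 15 min room-temperature compound preincubation with 10 nM enzyme. Signal taken at 0 min and again at 10 min.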
% is scaled to controls: 0 for no effect and ±100 for the full control effect; potency is read from the fitted curve at half-maximal effect; tags tell the direction and shape of the fitted curve.

Chain of UniProt Q9Y253 (Q9Y253 whole entry, looked up): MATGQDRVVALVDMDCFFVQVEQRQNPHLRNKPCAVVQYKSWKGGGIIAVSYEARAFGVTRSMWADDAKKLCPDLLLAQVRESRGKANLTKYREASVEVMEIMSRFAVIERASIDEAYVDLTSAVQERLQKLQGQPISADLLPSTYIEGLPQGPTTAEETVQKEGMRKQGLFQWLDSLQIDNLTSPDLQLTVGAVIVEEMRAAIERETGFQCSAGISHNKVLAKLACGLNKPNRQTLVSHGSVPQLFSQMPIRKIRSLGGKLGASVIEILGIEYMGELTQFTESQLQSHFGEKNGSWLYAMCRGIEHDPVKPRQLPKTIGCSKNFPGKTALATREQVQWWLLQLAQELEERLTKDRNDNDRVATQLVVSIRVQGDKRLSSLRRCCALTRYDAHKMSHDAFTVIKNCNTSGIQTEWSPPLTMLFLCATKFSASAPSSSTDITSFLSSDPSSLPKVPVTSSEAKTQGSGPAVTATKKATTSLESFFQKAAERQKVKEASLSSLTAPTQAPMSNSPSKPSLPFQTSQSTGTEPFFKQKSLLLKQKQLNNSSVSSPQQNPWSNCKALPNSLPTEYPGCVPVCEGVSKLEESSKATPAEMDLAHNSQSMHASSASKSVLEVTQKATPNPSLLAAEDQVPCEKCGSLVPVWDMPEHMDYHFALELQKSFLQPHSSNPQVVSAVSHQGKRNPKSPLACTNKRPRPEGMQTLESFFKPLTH

SMILES | Potency | activity change, negative = inhibition
Cc1ccc(CNC(=O)c2c[nH]n3c(=O)c(Cc4ccc(Cl)cc4)c(C)nc23)cc1 | inconclusive: 89.1 µM [inhibitor, single point] | 
Cc1cc(Cl)cc2c1NC(=O)[C@]21[C@@H]2C(=O)N(Cc3ccccc3)C(=O)[C@@H]2[C@@H]2CCCN21 | inconclusive: 39.8 µM [inhibitor, partial curve, poor fit] | 
O=C(O)c1ccc(N/N=C/c2ccc3ncccc3c2)cc1 | inconclusive: 10 µM [inhibitor, partial curve] | 
COc1ccc(OC)c(NC(=O)CCNC(=O)N2CC(=O)Nc3ccccc32)c1 | inconclusive: 89.1 µM [inhibitor, single point] | 
COC(=O)c1ccccc1NC(=O)CSc1nc(=O)cc(N)n1-c1ccccc1 | inconclusive: 89.1 µM [inhibitor, single point] | 
COc1ccccc1N/C(N)=N/c1nc(CSc2ccc(C)cc2)cc(=O)[nH]1 | inconclusive: 22.4 µM [inhibitor, full curve, poor fit] | 
CCC(=O)Nc1ccccc1Oc1ccccc1 | inconclusive: 39.8 µM [inhibitor, partial curve, poor fit] | 
CC(=NNC(=O)CCC(=O)Nc1ccccc1Cl)c1ccco1 | inconclusive: 2.82 µM [inhibitor, full curve, poor fit] | 
Cc1ccc2nc(NC(=O)c3ccc(N4C(=O)CCC4=O)cc3)sc2c1 |  | inactive: -2.28%
CCCCN(C(=O)c1cccc(S(=O)(=O)N(CC)c2ccccc2)c1)c1c(N)n(CCCC)c(=O)[nH]c1=O |  | inactive: 5.73%
COc1cc2ncc(C(=O)c3ccc(C)cc3)c(N3CCCCC3)c2cc1OC |  | inactive: -5.8%
Cc1ccc(S(=O)(=O)/N=C2\C=C(Nc3ccc(O)cc3)C(=O)c3ccccc32)cc1 | inconclusive: 20 µM [inhibitor, full curve, poor fit] | 
Cc1ccsc1/C=C1\CCc2ccccc2C1=O |  | inactive: 1.68%
COc1ccc(N2CC(C(=O)Nc3ccc(S(=O)(=O)Nc4nccs4)cc3)CC2=O)c(OC)c1 (configuration not stated) | active: 50.1 µM | 
CC(=O)C1=C(C)OC(N)=C(C#N)C1c1ccncc1 (configuration not stated) |  | inactive: 4.28%
CC1CCN(c2nc3ccc(C(=O)NCc4ccccc4Cl)cc3s2)CC1 |  | inactive: -12.4%
Cc1cccc(NC(=O)c2cccc3c2C(=O)c2ccccc2-3)c1 | inconclusive: 14.1 µM [inhibitor, partial curve, poor fit] | 
Cc1nn(-c2ccccc2)c2nc(-c3ccncc3)cc(C(=O)NCc3ccco3)c12 | inconclusive: 31.6 µM [inhibitor, single point] | 
O=C(O)c1ccc(NS(=O)(=O)c2cccc(C(=O)Nc3cccc(C(=O)O)c3)c2)cc1 | inconclusive: 39.8 µM [inhibitor, single point] | 
CCOC(=O)CSc1nnc(NC(=O)C2CC(=O)N(c3ccc(F)cc3)C2)s1 (configuration not stated) | inconclusive: 39.8 µM [inhibitor, partial curve] | 
Cc1csc2nc(COc3ccc(NC(=O)COc4ccccc4)cc3)cc(=O)n12 |  | inactive: -12.8%
O=C(/C=C/c1ccc(S(=O)(=O)N2CCOCC2)cc1)NC(=S)NCCCn1ccnc1 | inconclusive: 89.1 µM [inhibitor, partial curve, poor fit] | 
CC1CCN(S(=O)(=O)c2ccc(NC(=O)Cn3nnc(-c4ccccc4F)n3)cc2)CC1 | inconclusive: 56.2 µM [inhibitor, partial curve, poor fit] | 

SMILES | Potency | activity change, negative = inhibition
CC(C)C(=O)NC(=S)Nc1sc2c(c1C(N)=O)CCCC2 | inconclusive: 14.1 µM [inhibitor, partial curve, poor fit] | 
CCOC(=O)N1CCN(CC(O)c2ccc3cc[nH]c3c2)CC1 (configuration not stated) | inconclusive: 89.1 µM [inhibitor, single point] | 
CCOc1ccc(C(=O)Nc2cccc(NC(=O)c3ccc(C(C)(C)C)cc3)c2)cc1Br |  | inactive: -8.01%
Cc1[nH]c2ccccc2c1C1=CC(=O)C=CC1=O | inconclusive: 31.6 µM [inhibitor, partial curve, poor fit] | 
COc1ccc(CCNC(=O)C(=O)Nc2ccc3nc4n(c(=O)c3c2)CCCCC4)cc1OC | inconclusive: 100 µM [inhibitor, partial curve, poor fit] | 
CC(C)(C)N=Cc1c(O)ccc2oc3c(c12)CCCC3 | active: 39.8 µM | 
CN(c1ccccc1C(=O)NCc1ccco1)S(C)(=O)=O | inconclusive: 100 µM [inhibitor, single point] | 
O=C(Cn1ccn(-c2ccc(F)c(F)c2)c(=O)c1=O)NCCc1ccccc1 | inconclusive: 89.1 µM [inhibitor, single point] | 
CCCCCN1CC(=O)N2C(C)c3[nH]c4ccccc4c3C[C@H]2C1=O (some centres not stated) |  | inactive: -11.6%
CN1C(=O)S/C(=C/c2ccccc2OCc2ccc(C(=O)O)cc2)C1=O |  | inactive: -5.73%
O=[N+]([O-])c1cc(-c2ccc(/C=N/n3cnnc3)o2)ccc1Cl |  | inactive: -4.81%
CCOC(=O)/C=C/C(=O)OCC(=O)N1CCN(C(=O)c2ccco2)CC1 | inconclusive: 14.1 µM [inhibitor, full curve, poor fit] | 
O=C(Nc1nnc(SCc2cccnc2)s1)C1CC(=O)N(c2ccc(F)cc2)C1 (configuration not stated) | inconclusive: 25.1 µM [inhibitor, full curve] | 
Oc1ccc(-c2csc(Nc3ncccn3)n2)c(O)c1 |  | inactive: -13.8%
Cc1cc2nc(/N=C(\N)NC(=O)C(C)C)nc(C)c2cc1C |  | inactive: -14%
O=C(OCC(=O)N1CCN(c2ccccc2)CC1)c1ccc2ncsc2c1 | inconclusive: 15.8 µM [inhibitor, partial curve, poor fit] | 
COc1ccc(O)c(C=Nc2cc(NC(C)=O)c(Cl)cc2Cl)c1 |  | inactive: -4.03%
CC1CCN(CCCCOc2ccc([N+](=O)[O-])cc2)CC1 |  | inactive: -17.2%
CC(=O)c1cccc(NC(=O)c2ccc(NC(=O)CC3SC(N4CCCCC4)=NC3=O)cc2)c1 (configuration not stated) | inconclusive: 39.8 µM [inhibitor, partial curve, poor fit] | 
O=C(C1CCCCC1)N1C[C@@H](n2cc(-c3ccc(F)cc3)nn2)[C@H](O)C[C@@H]1c1ccccc1 | inconclusive: 50.1 µM [inhibitor, partial curve, poor fit] | 
C/C(=N/NC(=O)c1ccc(C)s1)c1cccc(NC(=O)COc2ccc(Cl)cc2C)c1 | inconclusive: 12.6 µM [inhibitor, partial curve, poor fit] | 
Cc1ccc(S(=O)(=O)N2CCCCC2)cc1NS(=O)(=O)c1cccc(C(=O)O)c1 |  | inactive: -10.6%
O=c1c(-c2ccc(O)cc2O)coc2cc(O)cc(O)c12 | inconclusive: 79.4 µM [inhibitor, partial curve] | 

SMILES | Potency | activity change, negative = inhibition
NS(=O)(=O)c1ccc(NC(=S)NNC(=O)c2ccc(Br)o2)cc1 |  | inactive: -14.8%
C=CCn1c(SCC(=O)c2ccc(CNC(C)=O)o2)nc2ccccc2c1=O | inconclusive: 11.2 µM [inhibitor, full curve, poor fit] | 
O=C(OC1CCOC1=O)c1ccc(-c2nc3ccccc3s2)s1 (configuration not stated) | inconclusive: 17.8 µM [inhibitor, full curve] | 
COc1ccc(-c2cc(C(F)(F)F)n3ncc(C(=O)NCc4ccco4)c3n2)cc1 | inconclusive: 14.1 µM [inhibitor, partial curve, poor fit] | 
O=C(O)C1Cc2ccccc2CN1C(=O)COc1ccc(Cl)cc1Cl (configuration not stated) | active: 25.1 µM | 
COc1cc(CC(=O)OCC(=O)NCc2ccco2)cc(OC)c1OC | active: 50.1 µM | 
O=C(c1ccccc1)c1ccc2nc(-c3ccco3)c(-c3ccco3)nc2c1 | active: 12.6 µM | 
O=C(/C=C/c1ccco1)NC(=S)Nc1cccc([N+](=O)[O-])c1 | active: 50.1 µM | 
CC(CCc1ccco1)NC(=O)Cn1ncc2c1-c1ccccc1OC2 (configuration not stated) | inconclusive: 44.7 µM [inhibitor, partial curve, poor fit] | 
COc1ccc(O)c(/C=N/NC(=O)c2ccc(OCc3cccc(Br)c3)cc2)c1 |  | inactive: -9.5%
C=CC[C@@H](CC(=O)N(CCO)Cc1ccccc1)C(=O)N[C@@H](COC(=O)[C@H](CC=C)CC(=O)OC(C)(C)C)Cc1c[nH]c2ccccc12 | inconclusive: 79.4 µM [inhibitor, partial curve, poor fit] | 
COc1ccc(OCC(=O)OCc2cc(=O)n3nc(-c4cccs4)sc3n2)cc1 | inconclusive: 89.1 µM [inhibitor, single point] | 
CCN(CC)Cc1cc(Nc2c3ccccc3nc3c4ccccc4n(C)c23)cc(CN(CC)CC)c1O | inconclusive: 5.62 µM [inhibitor, partial curve, poor fit] | 
Cc1ccc(C)c(S(=O)(=O)N2CCN(C(=O)CCC(=O)c3cc(C)sc3C)CC2)c1 | inconclusive: 28.2 µM [inhibitor, partial curve, poor fit] | 
Cc1ccccc1NC(=O)c1cccc2nc3ccccc3nc12 | inconclusive: 15.8 µM [inhibitor, partial curve] | 
NS(=O)(=O)c1cccc(NC(=O)C(Cc2ccccc2)NC(=O)c2ccccc2)c1 (configuration not stated) |  | inactive: 6.42%
O=c1cc(-c2ccc(O)cc2)oc2c1ccc1ccccc12 | active: 56.2 µM | 
CCOc1ccc(NC(=O)CC2Nc3ccccc3NC2=O)cc1 (configuration not stated) |  | inactive: -11.2%
CCn1cc(S(=O)(=O)c2ccccc2)c(=O)c2cc(F)c(N3CCCC3)cc21 |  | inactive: 7.87%
CCOc1ccc(-c2cc(C(=O)NCc3ccccc3Cl)c3ccccc3n2)cc1 | inconclusive: 50.1 µM [inhibitor, partial curve] | 
Cc1ccc(NC(=O)CCC(=O)c2cc(C)sc2C)nc1 | inconclusive: 79.4 µM [inhibitor, partial curve] | 
